Experimental data taken from publication PMC4336329 (PLoS ONE, 2015).
Among all 310,000 compounds or so, about 2,200 (0.71%) showed an effect of 50% or more. The effect is printed as a negative number. The list shows a part of the results. Where a SMILES comes first, the peptide text is derived from it. [ ]: non-standard residue; d: D form. The star is where a group is joined. ξ: configuration not given here. Tos = Cc1ccc(S(=O)(=O)*)cc1; ξP = O=C(O)C1CCCN1

Target: human ether-à-go-go-related gene (hERG) potassium channel (human, UniProt Q12809)
Test: primary screen, population patch clamp on CHO cells stably expressing hERG

human ether-à-go-go-related gene (hERG) potassium channel, sequence (Q12809 whole entry, looked up): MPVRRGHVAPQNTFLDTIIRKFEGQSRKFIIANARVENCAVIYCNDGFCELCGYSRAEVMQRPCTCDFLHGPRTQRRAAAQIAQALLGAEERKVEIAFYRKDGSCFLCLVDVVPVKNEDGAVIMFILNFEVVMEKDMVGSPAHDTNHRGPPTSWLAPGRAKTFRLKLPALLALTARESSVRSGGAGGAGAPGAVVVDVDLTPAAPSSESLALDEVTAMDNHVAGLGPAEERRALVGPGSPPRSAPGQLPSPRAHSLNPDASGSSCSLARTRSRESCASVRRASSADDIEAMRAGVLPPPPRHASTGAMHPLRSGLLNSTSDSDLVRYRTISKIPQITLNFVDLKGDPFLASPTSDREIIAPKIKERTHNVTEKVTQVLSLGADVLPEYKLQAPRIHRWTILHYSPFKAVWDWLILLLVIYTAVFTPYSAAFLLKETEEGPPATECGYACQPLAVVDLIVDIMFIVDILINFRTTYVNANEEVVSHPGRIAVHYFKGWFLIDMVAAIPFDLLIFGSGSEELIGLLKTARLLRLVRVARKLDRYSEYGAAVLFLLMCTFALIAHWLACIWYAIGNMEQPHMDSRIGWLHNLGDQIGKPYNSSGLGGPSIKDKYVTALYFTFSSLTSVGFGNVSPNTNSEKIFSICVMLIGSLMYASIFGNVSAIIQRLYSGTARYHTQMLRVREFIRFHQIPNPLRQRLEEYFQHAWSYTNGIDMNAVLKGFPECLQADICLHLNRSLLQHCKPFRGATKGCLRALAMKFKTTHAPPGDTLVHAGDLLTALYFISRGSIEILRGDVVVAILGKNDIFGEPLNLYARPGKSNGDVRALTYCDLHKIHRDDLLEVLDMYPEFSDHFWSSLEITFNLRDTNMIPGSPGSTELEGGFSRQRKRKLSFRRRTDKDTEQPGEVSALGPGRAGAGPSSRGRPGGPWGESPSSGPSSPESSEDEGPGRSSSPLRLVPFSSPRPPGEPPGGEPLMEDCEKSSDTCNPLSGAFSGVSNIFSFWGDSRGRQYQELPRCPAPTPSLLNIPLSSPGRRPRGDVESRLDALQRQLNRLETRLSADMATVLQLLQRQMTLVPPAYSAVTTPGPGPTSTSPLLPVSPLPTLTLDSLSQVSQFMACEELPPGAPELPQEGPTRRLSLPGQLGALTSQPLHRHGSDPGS

Row | Compound | hERG current change (%, negative = inhibition) at 1uM [%]
1 | O=C(Nc1cc(S(=O)(=O)N2CCOCC2)ccc1N1CCCCC1)c1ccc(Cl)cc1 | 16.4
2 | Cc1cccc(OCC(=O)Nc2ccc(C(=O)O)cc2NC(=O)COc2cccc(C)c2)c1 | 16
3 | Cc1ccc(CSc2nc3ccccc3cc2C=O)cc1 | 6.15
4 | C[C@@]12C(=O)Nc3ccc(Br)cc3C(=O)N1[C@H]1c3cc(Br)ccc3OC[C@@H]1[C@@H]2c1ccccc1 | 13.7
5 | O=C(Nc1cccn(Cc2c(Cl)cccc2Cl)c1=O)c1ccccc1Cl | 7.58
6 | O=c1[nH]c2ccc(NC(=S)Nc3ccc(F)cc3)cc2[nH]1 | 15.5
7 | COc1cccc(NC(=O)Nc2nc(SC(C)(C)C)ns2)c1 | 12.3
8 | CCOC(=O)C1(CC2CCCCO2)CCN(Cc2nccn2-c2ccc(OC)cc2)CC1 (centres unmarked) | 6.86
9 | Cc1ccc(S(=O)(=O)Nc2cc3c4c(c2)C(C)C(=O)N4CCC3)cc1 (centres unmarked) | 8.98
10 | O=C(CCCn1ncn2c(cc3occc32)c1=O)N1CCc2ccccc2C1 | -19.2
11 | COc1ccc(NC(=O)C(=O)N/N=C/c2cccnc2)cc1 | -2.94
12 | CCOC(=O)N1CCN(S(=O)(=O)c2ccc(C(=O)N(CCN(C)C)c3nc4ccc(Cl)cc4s3)cc2)CC1.Cl | 9.16
13 | COc1ccc(OC)c(-c2nnc(SCC(=O)N3CCCc4ccccc43)o2)c1 | -2.73
14 | O=C(NCCCN1CCCC1)c1ccc2c(c1)N(Cc1ccc(F)cc1)C(=O)c1ccccc1S2=O (centres unmarked) | 8.48
15 | O=c1c2c(nc3n1CCCCC3)-c1ccccc1CC21CCCCC1 | 11.7
16 | CCc1nn(CCCC(=O)NCc2cc(Br)ccc2OC)c(=O)c2cc3occc3n12 | 4.24
17 | O=C(CCNS(=O)(=O)c1ccccc1)N1CCN(C(c2ccccc2)c2ccccc2)CC1 | -5.28
18 | COc1cc(C(=O)NCCC2=CCCCC2)ccc1OCc1c(C)noc1C | 14.9
19 | COc1ccccc1N1CCN(C(=O)CCCn2c(=O)[nH]c3ccsc3c2=O)CC1 | 11.5
20 | CCCn1nnnc1NC(=O)c1cc(Cl)ccc1Cl | 9.33
21 | N/C(=N\OC(=O)CC1CCCCC1)c1ccccc1 | 1.81
22 | Cc1cc(C)n(-c2nnc(C)n2/N=C/c2ccc(O)cc2)n1 | 14.8

Row | Compound | hERG current change (%, negative = inhibition) at 1uM [%]
23 | Cc1c(C(=O)NCc2ccco2)cccc1[N+](=O)[O-] | 9.75
24 | Cc1cccn2c(=O)c3cc(S(=O)(=O)c4ccccc4)c(=N)n(CC4CCCO4)c3nc12 (centres unmarked) | 7.88
25 | O=S(=O)(c1ccc(Cl)cc1)N1CCCN(c2nc3ccc(Cl)cc3s2)CC1 | 9.45
26 | CC1(CC(=O)Nc2ccccc2)NC(=S)N(c2ccccc2)N1 (centres unmarked) | 20.5
27 | C=CCn1nc2n(c1=O)-c1ccccc1SC2 | 5.29
28 | CCc1nc(SCC(=O)NCc2ccccc2)c2c(=O)n(C)c(=O)n(C)c2n1 | -3.05
29 | Cc1ccc(SCC(=O)O/N=C(\N)c2ccc([N+](=O)[O-])cc2)cc1 | -0.381
30 | Brc1ccc(/C=N/Nc2nncc(-c3ccccc3)n2)o1 | 4.76
31 | Cc1cc(NC(=O)c2ccccc2)nc2c1c(=O)oc1ccccc12 | 17.1
32 | COc1ccc2[nH]cc(CCNC(=O)Cc3ccc(Br)cc3)c2c1 | 9.07
33 | C/C(=N\NC(=O)CNC(=O)c1ccc(F)cc1)c1ccco1 | 12.4
34 | Fc1ccc(-c2nc3ccccc3[nH]2)cc1 | 13.9
35 | COc1ccc(OCCCON2C(=O)c3ccccc3C2=O)cc1 | 6.98
36 | Cc1ccc(-c2onc3ccc(Cl)cc23)cc1 | 5.22
37 | O=C1NC(c2ccc(Cl)cc2)Oc2ccccc21 (centres unmarked) | 16.1
38 | COc1ccc(C(=O)Nc2ccc3oc(-c4cccnc4)nc3c2)cc1OC | 13.5
39 | CCc1cc(C(=O)N2CCN(S(=O)(=O)c3cc(C)ccc3C)CC2)sc1C | 13.5
40 | CCOC(=O)c1ccc(NC(=O)CCNc2c(N3CCCC3)c(=O)c2=O)cc1 | 13.1
41 | Cc1ccc(S(=O)(=O)NCC(=O)N2CCCC2C(=O)O)cc1 (stereo not drawn) (Tos-Gly-[ξP]-OH) | 8.34
42 | CCN(CC)C(=O)N1CCN(S(=O)(=O)c2c(C)cc(C)cc2C)CC1 | 11.4
43 | Clc1ccc(-n2nnc(-c3cccnc3Cl)n2)cn1 | 2
44 | COc1cc(/C=N/NC(=O)COc2ccc([N+](=O)[O-])cc2)ccc1OCC(=O)N1CCOCC1 | 21.6

Row | Compound | hERG current change (%, negative = inhibition) at 1uM [%]
45 | Cc1ccc(CNc2nc(C)c(C(=O)N(C)C)s2)cc1 | 11.9
46 | Cc1ccc(C)c(C2NC(=O)c3ccccc3N2)c1 (centres unmarked) | 14.8
47 | COc1ccc(NC(=O)CN(C)C(=O)c2ccc(-c3cccc(C(F)(F)F)c3)o2)cc1 | 11.9
48 | CSCCC1NC2(C(=O)Nc3c(Cl)cccc32)[C@@H]2C(=O)N(C3CCCC3)C(=O)[C@H]12 (some centres unmarked) | 2.45
49 | CCOC(=O)C1=C(C)NC2=C(C(=O)CCC2)C1c1ccc(O)c(OCC)c1 (centres unmarked) | 5.99
50 | Cc1ccc(OCC(=O)N/N=C/c2cn(Cc3ccccc3)c3ccccc23)cc1 | 14.7
51 | COc1ccc(CNC(=O)C2CC(c3cc(C(F)(F)F)cc(C(F)(F)F)c3)=NO2)cc1 (centres unmarked) | 11.6
52 | CN1CCN(Cc2cc(C(C)(C)C)c(O)c(C(C)(C)C)c2)CC1 | 5.2
53 | C=CCN(C(=O)c1cc(C)cc(C)c1)C1(C(=O)Nc2ccccc2)CCN(C(C)C)CC1 | 4.58
54 | COc1cc(S(=O)(=O)N2CCCCC2)ccc1NC(=O)/C=C/c1ccccc1 | 3.25
55 | O=C(CNS(=O)(=O)c1ccccc1)N1CCN(C(=O)c2ccco2)CC1 | -0.9
56 | CSc1nnc(-c2ccccc2)c(-c2ccccc2)n1 | 12.5
57 | COc1cc(NS(=O)(=O)c2ccc(NC(=O)CN3C(=O)c4ccccc4C3=O)cc2)nc(OC)n1 | 15.5
58 | CSc1nc(C)[nH]c(=O)c1C#N | 15.7
59 | CCOC(=O)C(C(=O)NCc1cccc(OC)c1)c1ncc(C(F)(F)F)cc1Cl (centres unmarked) | 9.84
60 | CC(=O)c1ccc(S(=O)(=O)N2CCN(c3ccccc3F)CC2)cc1 | 8.26
61 | COc1ccc(CN2C(=O)c3cccnc3C2O)cc1 (centres unmarked) | 11.2
62 | O=C1CC(=O)Nc2cc(S(=O)(=O)N3CCOc4ccc(Cl)cc43)ccc2N1 | 3.45
63 | C=CC1=C(C(=O)O)N2C(=O)[C@@H](NC(=O)/C(=N\O)c3csc(N)n3)[C@H]2SC1 | 2.79
64 | Cc1ccc(C)c(C(=O)CCC(=O)N2CCN(c3cccc(C(F)(F)F)c3)CC2)c1 | 11.4
65 | COc1ccccc1/C=C/C(=O)c1ccccc1 | 7.55
66 | Cc1cc(C)n(/N=C/c2cccs2)c(=O)c1C#N | 5.14

Row | Compound | hERG current change (%, negative = inhibition) at 1uM [%]
67 | Cc1ccc(F)cc1NC(=O)c1ccc2c(c1)OCO2 | 13.3
68 | CCC(C)c1ccc(OCC(=O)Nc2ccc3[nH]c(=O)[nH]c3c2)cc1 (centres unmarked) | 3.56
69 | CCN(CC)C(=O)C1CCCN(C(=S)Nc2cccc3ccccc23)C1 (centres unmarked) | 11.7
70 | Cc1cc(-c2ccc(C)c(S(=O)(=O)N3CCN(c4ccccn4)CC3)c2)on1 | 6.4
71 | COc1ccccc1NC(=O)C(CC(C)C)NC(=O)C1CCCCC1 (centres unmarked) | 4.24
72 | O=C(O)COc1ccccc1-c1nc(-c2ccccc2)c(-c2ccccc2)[nH]1 | 12.4
73 | COc1ccc(C(=O)NN2C(=O)C3C4C=CC(O4)C3C2=O)cc1 (centres unmarked) | 6.24
74 | CC1CCN(CC(O)COCCOc2ccc(Br)cc2)CC1.Cl (centres unmarked) | -23
75 | COc1ccccc1N(Cc1cc(=O)[nH]c2ccccc12)C(=O)c1ccccc1 | 17.8
76 | CCOC(=O)C1C(=O)NC(N2CCN(CC)CC2)=NC1c1ccccc1 (centres unmarked) | 11
77 | Cc1ccc(S(=O)(=O)N2[C@@H](c3cccc(Cl)c3)C(C(=O)O)=CC[C@H]2c2cccc(C)c2)cc1 | 7.45
78 | Cc1ccc(C(=O)Nc2cccc(C(F)(F)F)c2)cc1NC(=O)c1nccnc1N | 12.3
79 | Cc1cc(C)n(CC(=O)Nc2cccc(C(F)(F)F)c2)n1 | 8.66
80 | COC(=O)c1ccc(N2CCOCC2)c(NC(=O)c2cccnc2)c1 | 5.37
81 | COCCNC(=O)C(c1ccc(C)cc1)N(C(=O)CCC(=O)Nc1ccccn1)C1CCCCC1 (centres unmarked) | 17.7
82 | CCn1nc(CC(=O)O)c2ccccc2c1=O | 27.7
83 | CCc1csc(CNC(=O)C2CCC(=O)N(Cc3cccc(F)c3)C2)n1 (centres unmarked) | 11.9
84 | CC(C)(C)N1C(=O)c2ccc(C(=O)Nc3cc(C(=O)O)cc(C(=O)O)c3)cc2C1=O | 15.3
85 | COc1cc(OC)c(C2N(c3ccc(Cl)cc3)C(=O)C3CCCN32)cc1OC (centres unmarked) | 7.88
86 | CN1CCN(C(=O)C2=C[C@H](c3ccccc3)C[C@H](OCc3ccc(CO)cc3)O2)CC1 | -9.47
